Laboratory results: US11542275B2, “Substituted imidazolidin-2-one derivatives as PRMT5 inhibitors” (Aurigene Discovery Technologies Limited, priority 2018, dated 2023)

Target: PRMT5/MEP50 Complex (Homo sapiens (Human), UniProt O14744)
Assay: PRMT5 inhibition based on TR-FRET assay
Assay type: biochemical
Conditions: 32 nM PRMT5:MEP50 complex, 50 nM Histone-H4 peptide, 1 μM SAM, 90 minutes at room temperature
Description: Protein arginine methyltransferase 5 (PRMT5) is a type II arginine methyltransferase that catalyze mono- and symmetric demethylation on arginine residues of histone or non-histone proteins in presence of S-adenosylmethionine (AdoMet or SAM) a cofactor responsible for donating the methyl group. PRMT5 is reported to be overexpressed in several human cancers. To identify compounds that inhibit the PRMT5 and decrease its activity, a TR-FRET based assay has been established. Time-resolved fluorescence resonance energy transfer (TR-FRET) HTS assays are homogeneous proximity assays where the interaction of two dye-labeled binding partners is detected by the energy transfer between a donor and an acceptor dye, and the subsequent light emission by the acceptor dye. PRMT5 catalyzes Histone H4 peptide which is biotin tagged to the Lysine amino acid at carboxyl end, in presence of S-adenosyl-1-methionine (SAM) to methylate the peptide. The antibody specific to mono methylated H4 peptide (H4R3) with Ig conjugate binds to the methylated peptide, indirectly binding to the Europium lanthanide. […]
The compound dilutions were prepared as 7.5% DMSO stock solutions in assay buffer. […] The plates were then read on Victor-3 with Excitation at 340 nm and Emissions collected at 615 and 665 nm in TR-FRET protocol. […]

| SMILES | IC50 [nM] |
| --- | --- |
| N#Cc1ncc(-c2ccnc(CN3CCN(C[C@H](O)CN4CCc5ccccc5C4)C3=O)c2)cn1 [Compound 54, (R)-5-(2-((3-(3-(3,4-dihydroisoquinolin-2(1H)-yl)-2-hydroxypropyl)-2-oxoimidazolidin-1-yl)methyl)pyridin-4-yl)pyrimidine-2-carbonitrile] | 70 |
| N#Cc1ncc(-c2cccc(CN3CCN(C[C@H](O)CN4CCc5ccccc5C4)C3=O)n2)cn1 [Compound 55, (R)-5-(6-((3-(3-(3,4-dihydroisoquinolin-2(1H)-yl)-2-hydroxypropyl)-2-oxoimidazolidin-1-yl)methyl)pyridin-2-yl)pyrimidine-2-carbonitrile] | 32 |
